Reference: PubChem BioAssay AID1963441 (Molecular Pharmacology Branch, DTP, NCI, 2024)
Certain results were filed several times, with different values. The other results are left out here. The source may hold further records. Values given together repeat one measurement across runs, samples, wells, individuals or studies. Counts like (3×) give the number of equal values in this list.

Tested on: NCI-H1876 complex spheroid growth, % test/control
Assay: Anticancer human tumor NCI-H1876 cell line growth inhibition [Asc];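 note: compound exposure lasted 7 days starting three days after seeding; 100% = DMSO vehicle control wells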
Settings: stronger effect = lower value
Procedure: Multicellular complex tumor spheroid response to apoptosis pathway targeting inhibitors Alrizomadlin, Pelcitoclax, and Dasminapant in combination with a variety of drugs and investigational agents in selected tumor cell lines
The MDM2 inhibitor alrizomadlin, the Bcl-2/Bcl-xL inhibitor pelcitoclax, and the IAPs inhibitor dasminapant were evaluated both individually and in combination with standard of care and investigational anticancer small molecules within a complex spheroid model of solid tumors. . Complex spheroids include a stromal component modeled by human endothelial cells (HUVEC) and fibroblasts modeled by human mesenchymal stem cells (MSCs). The concentration ranges selected for each drug and investigational agent were based upon clinically achievable concentrations if the clinical Cmax of the agent was known.
Compounds. The drugs and investigational agents: alrizomadlin (APG-115; NSC831270), pelcitoclax (APG-1252; NSC835773), dasminapant (APG-1387;NSC834197), TAK-243 (NSC785004), copanlisib (NSC809693), olaparib (NSC753686), talazoparib (NSC767125), cobimetinib (NSC 768068), eltanexor (KPT-8602, NSC 794443), abemaciclib (NSC 768073), sotorasib (NSC818433), adagrasib (NSC 831453), MRTX-1133 (NSC 836407), Iadademestat (ORY1001, NSC 806812), and RMC-4630 (NSC839698), were obtained from the NCI Developmental Therapeutics Program Chemical Repository. The FDA-approved anticancer drug set is available from the Developmental Therapeutics Program at https://dtp.cancer.gov/organization/dscb/obtaining/available plates.htm. […] The stock solutions were prepared in dimethyl sulfoxide (DMSO, Sigma-Aldrich, St. Louis, MO, cat. D2650) at 800-fold the tested concentration and stored at -70 degrees C prior to their use. All drugs and investigational agents were tested over a range starting from a high concentration at or near the clinical Cmax and decreasing in half-log increments. If the clinical Cmax for an agent had not been determined, the highest concentration tested was 10 microM.
The patient-derived cancer (PDC) cell lines include five colon adenocarcinomas: 186277-243-T-J2-PDC, 616215-338-R-J1-PDC, 439559-082-T-J2-PDC, 463943-066-T-J2-PDC, and 519858-162-T-J1-PDC; three pancreatic carcinomas: 323965-272-R-J2-PDC, 521955-158-R6-J3-PDC, and 521955-158-R2-J5-PDC; two uterine sarcomas: 327498-152-R-J2-PDC and 993429-296-R-J1-PDC; two rhabdomyosarcomas: 755483-174-R-J1-PDC and 772245-204-R-J1-PDC; two soft tissue sarcomas: 126254-015-R-J1-PDC and 494315-158-R-J1-PDC; two malignant fibrous histiocytomas: 317291-083-R-J1-PDC and 596521-263-R-J1-PDC; two breast carcinomas: 171881-019-R-J1-PDC and 885512-296-R-J2-PDC; and one ovarian carcinoma: 6556581-035-R-J-PDC were obtained from the NCI PDMR, (https://pdmr.cancer.gov). The established cell lines HSSY-2 synovial sarcoma (RRID:CVCL 8719), SYO-1 synovial sarcoma (RRID:CVCL_7146), MPNST malignant peripheral neural sheath tumor were obtained from the Sloan Kettering Institute. […]

CCN1C(C(=O)NC23CCC(C(=O)O)(CC2)CC3)C(c2cccc(Cl)c2F)C2(C(=O)Nc3cc(Cl)ccc32)C12CCCCC2 (stereo not given)
viability, T/C (compound alone 0.03 µM): 119, 108, 103, 112, 114, 99.4, 107, 87.4, 98.9%
viability, T/C (compound alone 0.3 µM): 98, 106, 96.6, 107, 99, 128, 95.5, 97.2, 103%
viability, T/C (compound alone 0.949 µM): 128, 111 (2×), 105, 99.6, 101, 126, 113, 115%

CNC(C)C(=O)NC1CN(S(=O)(=O)c2cccc(S(=O)(=O)N3CCC4CCC(C(=O)NC(c5ccccc5)c5ccccc5)N4C(=O)C(NC(=O)C(C)NC)C3)c2)CCC2CCC(C(=O)NC(c3ccccc3)c3ccccc3)N2C1=O (stereo not given)
viability, T/C (compound alone 0.00316 µM): 96.7, 102, 77.7, 112, 105, 117, 109, 103% (2×)

C=C(F)C(=O)N1CCN(c2nc(OCC3CCCN3C)nc3c2CCN(c2cccc4cccc(Cl)c24)C3)CC1CC#N (stereo not given)
viability, T/C (compound alone 10 µM): 26.9%, 17.3%, 0.97%
